# Test results from publication PMC6426595.
# Chains of the proteins cited; added tags and fusions are not shown. Lines headed by an entry give the natural chain unless they say otherwise; changes in a name come on top.
# UniProt P08659: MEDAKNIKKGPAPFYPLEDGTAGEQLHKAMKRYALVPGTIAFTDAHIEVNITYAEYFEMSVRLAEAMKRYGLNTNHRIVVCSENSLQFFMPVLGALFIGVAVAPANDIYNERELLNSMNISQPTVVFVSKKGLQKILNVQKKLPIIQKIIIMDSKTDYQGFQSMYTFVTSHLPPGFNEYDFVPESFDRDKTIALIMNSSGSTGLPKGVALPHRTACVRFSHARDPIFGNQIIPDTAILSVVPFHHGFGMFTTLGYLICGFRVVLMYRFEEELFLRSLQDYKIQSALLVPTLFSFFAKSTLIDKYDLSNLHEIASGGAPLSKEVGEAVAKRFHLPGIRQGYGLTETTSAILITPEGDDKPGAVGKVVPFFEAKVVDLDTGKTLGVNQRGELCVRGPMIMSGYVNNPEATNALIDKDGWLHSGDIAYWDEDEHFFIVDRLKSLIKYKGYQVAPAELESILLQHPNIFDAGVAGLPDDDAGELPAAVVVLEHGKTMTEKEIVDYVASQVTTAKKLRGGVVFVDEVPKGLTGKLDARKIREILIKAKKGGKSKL
# UniProt P54132: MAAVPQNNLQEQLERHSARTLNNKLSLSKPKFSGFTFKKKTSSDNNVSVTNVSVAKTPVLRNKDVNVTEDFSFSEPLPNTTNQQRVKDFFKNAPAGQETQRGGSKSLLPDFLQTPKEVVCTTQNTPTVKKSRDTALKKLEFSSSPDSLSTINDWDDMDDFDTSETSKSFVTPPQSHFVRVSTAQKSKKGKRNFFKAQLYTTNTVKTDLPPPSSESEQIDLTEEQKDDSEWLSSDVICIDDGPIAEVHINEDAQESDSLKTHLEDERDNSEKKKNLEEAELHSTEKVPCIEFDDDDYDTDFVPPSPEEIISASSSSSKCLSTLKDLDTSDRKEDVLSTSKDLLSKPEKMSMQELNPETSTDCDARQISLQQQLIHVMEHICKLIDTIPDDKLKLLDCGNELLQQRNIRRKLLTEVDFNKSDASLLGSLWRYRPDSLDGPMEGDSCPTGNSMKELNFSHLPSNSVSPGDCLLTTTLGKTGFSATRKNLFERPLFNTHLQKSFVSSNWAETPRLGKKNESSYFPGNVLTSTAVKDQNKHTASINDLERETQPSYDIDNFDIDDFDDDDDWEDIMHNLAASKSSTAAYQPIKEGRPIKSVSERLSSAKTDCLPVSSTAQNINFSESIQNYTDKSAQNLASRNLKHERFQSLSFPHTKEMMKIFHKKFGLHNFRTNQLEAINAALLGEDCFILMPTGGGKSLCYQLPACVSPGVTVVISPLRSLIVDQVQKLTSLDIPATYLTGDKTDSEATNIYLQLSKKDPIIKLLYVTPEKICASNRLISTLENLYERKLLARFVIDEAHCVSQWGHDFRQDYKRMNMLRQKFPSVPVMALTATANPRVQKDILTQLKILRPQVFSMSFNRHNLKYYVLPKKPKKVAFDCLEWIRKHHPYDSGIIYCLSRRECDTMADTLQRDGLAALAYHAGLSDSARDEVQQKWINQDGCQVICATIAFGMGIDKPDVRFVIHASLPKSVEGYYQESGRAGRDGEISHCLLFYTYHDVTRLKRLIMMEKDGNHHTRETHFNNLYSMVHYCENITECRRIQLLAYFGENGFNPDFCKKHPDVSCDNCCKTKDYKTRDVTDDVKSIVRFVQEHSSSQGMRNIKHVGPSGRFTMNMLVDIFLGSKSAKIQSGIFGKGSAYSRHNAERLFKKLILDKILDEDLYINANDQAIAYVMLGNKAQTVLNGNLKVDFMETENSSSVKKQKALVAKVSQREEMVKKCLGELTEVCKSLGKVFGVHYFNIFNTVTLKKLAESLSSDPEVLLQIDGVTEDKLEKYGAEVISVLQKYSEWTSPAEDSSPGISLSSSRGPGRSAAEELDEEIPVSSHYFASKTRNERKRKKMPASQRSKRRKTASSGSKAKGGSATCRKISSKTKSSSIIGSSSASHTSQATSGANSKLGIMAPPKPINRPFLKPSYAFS
# Results are given in words; binding and its absence hold for the method and conditions named. For some assays here: In cells and extracts the contact can be indirect. Some binding calls cover weakened binding; strength is not graded here. For some assays here: Where a sequence is shown, tags or fusion partners need not be part of it.
# What was measured:
# [1] = target: T1, GST-E1 (353-649), HPV11 (human papillomavirus type 11 (HPV11)) (UniProt P04014); experiment: pull-down; purified GST-E1 fragments or GST alone as bait, in vitro-translated BLM, E2 or luciferase as prey; ethidium bromide included in binding reactions as a control for contaminating DNA; only the target purified
# T1 sequence: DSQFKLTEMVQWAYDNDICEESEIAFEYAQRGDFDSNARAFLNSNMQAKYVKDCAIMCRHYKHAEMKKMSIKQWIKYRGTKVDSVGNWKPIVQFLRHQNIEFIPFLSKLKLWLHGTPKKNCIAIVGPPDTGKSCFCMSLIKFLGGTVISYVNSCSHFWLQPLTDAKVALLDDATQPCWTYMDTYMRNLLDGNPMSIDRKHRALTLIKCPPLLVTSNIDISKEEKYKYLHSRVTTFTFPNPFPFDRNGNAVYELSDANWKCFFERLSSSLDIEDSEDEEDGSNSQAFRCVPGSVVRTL
# [2] = target: GST-E1 (191-649), HPV11 (human papillomavirus type 11 (HPV11)) (UniProt P04014); experiment: as above
# [3] = target: T2, HPV11 E1 (yeast two-hybrid bait, fused to the GAL4 DNA-binding domain) (human papillomavirus type 11 (HPV11)) (UniProt P04014); experiment: two-hybrid; yeast; E1 baits fused to the GAL4 DNA-binding domain (pAS1) against a human lymphocyte cDNA library in pACT2 (GAL4 activation domain); beta-galactosidase activity measured
# T2 sequence: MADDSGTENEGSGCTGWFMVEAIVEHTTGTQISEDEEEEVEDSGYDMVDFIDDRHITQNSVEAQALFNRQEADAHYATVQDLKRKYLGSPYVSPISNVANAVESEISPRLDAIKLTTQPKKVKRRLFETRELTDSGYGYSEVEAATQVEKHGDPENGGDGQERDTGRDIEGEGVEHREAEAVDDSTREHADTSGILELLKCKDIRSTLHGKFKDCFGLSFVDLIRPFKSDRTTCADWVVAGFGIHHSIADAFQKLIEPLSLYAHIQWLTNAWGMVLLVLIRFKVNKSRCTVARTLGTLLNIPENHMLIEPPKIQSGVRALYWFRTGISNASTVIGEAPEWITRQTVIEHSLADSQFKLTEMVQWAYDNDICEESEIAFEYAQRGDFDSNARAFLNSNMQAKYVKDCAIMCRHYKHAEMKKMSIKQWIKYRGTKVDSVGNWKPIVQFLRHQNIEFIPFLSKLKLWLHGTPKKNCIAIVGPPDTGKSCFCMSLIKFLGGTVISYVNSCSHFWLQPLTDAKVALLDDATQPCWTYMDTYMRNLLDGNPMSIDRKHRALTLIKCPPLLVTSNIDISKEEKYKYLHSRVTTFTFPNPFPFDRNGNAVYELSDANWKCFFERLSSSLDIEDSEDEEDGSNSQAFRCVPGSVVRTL
substance,measurement,setting,value
"firefly luciferase, in vitro translated (from UniProt P08659 1-550) (enzyme)",binding,[1],no binding
same,binding,[2],no binding
"BLM helicase, in vitro translated (from UniProt P54132 1-1417)",binding,[1],binds
same,binding,[2],binds
"BLM helicase fragment 1-514 (yeast two-hybrid prey, fused to the GAL4 activation domain) (from UniProt P54132 1-514) (domain or fragment)",binding,[3],binds
